Assay results from the supplement of paper PMC11417369.
± gives the standard deviation of the averaged measurements. This is one part of the list.

system: PfAP2-EXP AP2 domain (GST-tagged); assay: gcPBM binding intensity (ln(normalized median fluorescence intensity)); higher = stronger DNA binding
Procedure, shortened: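 Alexa488 anti-GST antibody, scanned at 488 nm, detected GST-tagged P. falciparum DNA-binding domains that had been expressed in E. coli and incubated for 1 h on an Agilent 4 × 180k array. The array carried primer-extended double-stranded 36-bp intergenic genomic probes and negative controls. Binding intensity is the highest Masliner-normalised natural-log median intensity across replicate spots of either orientation of each probe.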

Sequence | gcPBM binding intensity (ln)
ATATATATACTGTGTACACAAATATATATTATATAT [CACACA_site6104] | 8.66 ± 0.057
TAAAATAAAAAGTTTACACACATATATAATTTTAAT [CACACA_site662] | 8.3 ± 0.4
GAATTATATAATTAAAGTACATTGTTTATATAATCA [XGTACX_site7246] | 8.31 ± 0.31
AACCATTTTAAATATGCACACAGATGCACTAACACA [CACACA_site8565] | 9.05 ± 0.3
ATTTATATGGTTTGCACACATAACAACTATGGTTAT [CACACA_site3632] | 8.9 ± 0.36
AAATTCCACGGACACACACACATATAAATAAATAAA [CACACA_site4811] | 8.73 ± 0.45
TGTAGTCTGGAGAAAAGTACATAGTATCTGGTAGCT [XGTACX_site2031] | 8.63 ± 0.4
GAAAGAAATAAAGGTGGTACATAAATAAAAACTAAG [XGTACX_site4826] | 9 ± 0.51
TTTACACGTACGTGTACACACAAAAATATGTTTTTA [CACACA_site995] | 8.82 ± 0.33
AACATAAAAAAAATATGTACATATATAATATATATA [XGTACX_site3764] | 8.85 ± 0.23
AATATATGGTTTCATGATATTAAATACAATTTAATG [CACACA_negctrl_site1503] | 8.13 ± 0.42
CTATAATTATGATGAAGTACATATGAGTTCAAAAAA [XGTACX_site3070] | 8.7 ± 0.33
ATATATATATGTATATGTACTTATATTATTGTTTGT [XGTACX_site1466] | 9.55 ± 0.12
ACATAATGCTAGACACGTACGTACATCCGTGAGGTT [XGTACX_site4156] | 8.78 ± 0.39
GTAAAAGAACGGCATGCATGAAAAATATTACACATG [TGCATGCA_site143] | 9.38 ± 0.38
TTATTATTATATTCTACATGCAGTTTGTGTAGAACA [TGCATGCA_site455] | 8.87 ± 0.17
TGAACTCAACAAAGGGTGCATAACAAAAATAGACGT | 9.565 ± 0.021
TTTCAATAATAAAAAACACACACAAAAAAAAATAAT [CACACA_site8905] | 8.93 ± 0.68
AAAAATATAAACACCAGTACACAAACCTATAATGGA [XGTACX_site3846] | 8.76 ± 0.49
AAAGTAAATTTAAGCACACACAACGAATTTTTATAC [CACACA_site1959] | 8.72 ± 0.092
TGTACGAGTCGTAGAGTGCAGTCTGGAGAAGAGTAC [GTGCAC_site9684] | 9.22 ± 0.4
AAAATTTATAAAAGCACACAAAATAAAAAAAAATGA [CACACA_site1491] | 8.69 ± 0.52
TTTTGTTATATACAATAGATCAGAAGAAATGAAGTT [CACACA_negctrl_site1579] | 8.69 ± 0.49
TTATAATATGTATACACACACATATATAAATATATA [CACACA_site2326] | 8.3 ± 0.34
CTTACGTATTAAGTGTGTCCGTAGTGTTCATAGTTC [XGTACX_site8913] | 8.54 ± 0.49
